# From the supplement of paper PMC8728848
# The other results are listed elsewhere or left out.
# Experiments:
# Experiment in all cases: glycan array binding signal (z-score within array); higher = stronger binding
# Details in all cases: glycan notation: IUPAC condensed, linker removed
# [1] = biological target: Gal(b1-4)GlcNAc(b1-2)Man(a1-6)[Man(a1-3)]Man(b1-4)GlcNAc(b1-4)GlcNAc
# Outline: (§1)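 From the Consortium for Functional Glycomics database, 3228 arrays were curated, keeping only those whose protein sequence was available. Binding is given as a within-array Z-score averaged across arrays sharing a protein sequence and across linkers. Negative Z-scores can be read as non-binding.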
# [2] = biological target: Gal(b1-4)GlcNAc(b1-2)[Gal(b1-4)GlcNAc(b1-4)]Man(a1-3)[Gal(b1-4)GlcNAc(b1-2)Man(a1-6)]Man(b1-4)GlcNAc(b1-4)GlcNAc
# Outline: as §1
# [3] = biological target: Gal(b1-4)GlcNAc(b1-2)[Gal(b1-4)GlcNAc(b1-4)]Man(a1-3)[Gal(b1-4)GlcNAc(b1-2)[Gal(b1-4)GlcNAc(b1-6)]Man(a1-6)]Man(b1-4)GlcNAc(b1-4)GlcNAc
# Outline: as §1
# [4] = biological target: Gal(b1-4)GlcNAc(b1-2)[Gal(b1-4)GlcNAc(b1-4)]Man(a1-3)[GlcNAc(b1-4)][Gal(b1-4)GlcNAc(b1-2)Man(a1-6)]Man(b1-4)GlcNAc(b1-4)GlcNAc
# Outline: as §1
# [5] = biological target: Gal(b1-4)GlcNAc(b1-2)[Gal(b1-4)GlcNAc(b1-4)]Man(a1-3)[GlcNAc(b1-4)][Gal(b1-4)GlcNAc(b1-2)[Gal(b1-4)GlcNAc(b1-6)]Man(a1-6)]Man(b1-4)GlcNAc(b1-4)GlcNAc
# Outline: as §1
# [6] = biological target: Gal(b1-4)GlcNAc(b1-2)[Gal(b1-4)GlcNAc(b1-6)]Man(a1-6)[Gal(b1-4)GlcNAc(b1-2)Man(a1-3)]Man(b1-4)GlcNAc(b1-4)GlcNAc
# Outline: as §1
# [7] = biological target: Gal(b1-4)GlcNAc(b1-2)[Gal(b1-4)GlcNAc(b1-6)]Man(a1-6)[Gal(b1-4)GlcNAc(b1-2)Man(a1-3)]Man(b1-4)GlcNAc(b1-4)[Fuc(a1-6)]GlcNAc
# Outline: as §1
# [8] = biological target: Gal(b1-4)GlcNAc(b1-2)[Gal(b1-4)GlcNAc(b1-6)]Man(a1-6)[GlcNAc(b1-4)][Gal(b1-4)GlcNAc(b1-2)Man(a1-3)]Man(b1-4)GlcNAc(b1-4)GlcNAc
# Outline: as §1
# [9] = biological target: Gal(b1-4)GlcNAc(b1-2)[Gal(b1-4)GlcNAc(b1-6)]Man(a1-6)[GlcNAc(b1-4)][Gal(b1-4)GlcNAc(b1-2)[Gal(b1-4)GlcNAc(b1-4)]Man(a1-3)]Man(b1-4)GlcNAc(b1-4)[Fuc(a1-6)]GlcNAc
# Outline: as §1
# [10] = biological target: Gal(b1-4)GlcNAc(b1-3)Gal(b1-3)GalNAc
# Outline: as §1
# [11] = biological target: Gal(b1-4)GlcNAc(b1-3)Gal(b1-3)GlcNAc
# Outline: as §1
# [12] = biological target: Gal(b1-4)GlcNAc(b1-3)Gal(b1-4)Glc
# Outline: as §1
# [13] = biological target: Gal(b1-4)GlcNAc(b1-3)Gal(b1-4)GlcNAc
# Outline: as §1
# [14] = biological target: Gal(b1-4)GlcNAc(b1-3)Gal(b1-4)GlcNAc(b1-2)Man(a1-3)[Gal(b1-4)GlcNAc(b1-3)Gal(b1-4)GlcNAc(b1-2)Man(a1-6)]Man(b1-4)GlcNAc(b1-4)GlcNAc
# Outline: as §1
# [15] = biological target: Gal(b1-4)GlcNAc(b1-3)Gal(b1-4)GlcNAc(b1-2)Man(a1-3)[Gal(b1-4)GlcNAc(b1-3)Gal(b1-4)GlcNAc(b1-2)Man(a1-6)]Man(b1-4)GlcNAc(b1-4)[Fuc(a1-6)]GlcNAc
# Outline: as §1
# [16] = biological target: Gal(b1-4)GlcNAc(b1-3)Gal(b1-4)GlcNAc(b1-2)[Gal(b1-4)GlcNAc(b1-3)Gal(b1-4)GlcNAc(b1-6)]Man(a1-6)[Gal(b1-4)GlcNAc(b1-3)Gal(b1-4)GlcNAc(b1-2)Man(a1-3)]Man(b1-4)GlcNAc(b1-4)GlcNAc
# Outline: as §1
# [17] = biological target: Gal(b1-4)GlcNAc(b1-3)Gal(b1-4)GlcNAc(b1-2)[Gal(b1-4)GlcNAc(b1-3)Gal(b1-4)GlcNAc(b1-6)]Man(a1-6)[Gal(b1-4)GlcNAc(b1-3)Gal(b1-4)GlcNAc(b1-2)Man(a1-3)]Man(b1-4)GlcNAc(b1-4)[Fuc(a1-6)]GlcNAc
# Outline: as §1
# [18] = biological target: Gal(b1-4)GlcNAc(b1-3)Gal(b1-4)GlcNAc(b1-3)Gal(b1-4)GlcNAc
# Outline: as §1
binder,measurement,setting,value
PX9961V-pdi-562-26-562 (Parabacteroides distasonis) (protein) EIFSEITTDNYYQNSNNIYAALVNNYAKAFSTGWSDARYFLQEVTADQLMIPTRGKHGYNGGEYVRLHEHKWTVEENFVYNGWAAPFQGIALCNNTLSDFENLDFSTFKLTEETKNEYIAELRALRVWNYMFLIDFFRHVPIVTDIEEVKAQSTPLEVFNFMESELLAILPDLPKNRGVSRFDQAGVASILVRLYLNAEKWIGISKYDECEQMAQAILDGKYGEYSIDPDYRGPFRSGINGYRSKENIMEFAIKKNYFEASWLYNMWMHYQDRYSLDNDWQGWNGGNLAPSRDLYGNLYQDKLGMPFEKFPDGDIRKKAFRVISNDGDYEGFFLMGTQYKFDYEKGYGFTDEVITGTEEYNGKPLVYVDQVGRFSEGETGLAKGSHVIYGEENTGYRLIKFPWLPQSKDLFQMNSIPEIRLAEIYYSLAECKYRSGDKIGAARLLDVVRKRYYKAEDWSKFSYESNISKLTDDEFVDELGREFIGERHRRIDLIRWNRFSEGAWWDKTPDATNQDVFPIPYRALNANPLLKQTTAGF,glycan array binding signal (z-score),[1],0.897
same,glycan array binding signal (z-score),[2],-0.472
same,glycan array binding signal (z-score),[3],-0.483
same,glycan array binding signal (z-score),[4],-0.171
same,glycan array binding signal (z-score),[5],-0.137
same,glycan array binding signal (z-score),[6],1.12
same,glycan array binding signal (z-score),[7],-0.02
same,glycan array binding signal (z-score),[8],1.28
same,glycan array binding signal (z-score),[9],-0.471
same,glycan array binding signal (z-score),[10],0.14
same,glycan array binding signal (z-score),[11],-0.125
same,glycan array binding signal (z-score),[12],-0.34
same,glycan array binding signal (z-score),[13],-0.878
same,glycan array binding signal (z-score),[14],0.178
same,glycan array binding signal (z-score),[15],4.04
same,glycan array binding signal (z-score),[16],4.58
same,glycan array binding signal (z-score),[17],0.804
same,glycan array binding signal (z-score),[18],0.182
